The list shows a part of the results, in another mix than the full data. The list includes weakly bound sequences.
Tests used:
Assay in all cases: protein-binding microarray (PBM)
Conditions in all cases: PBM: ~300 nM protein, 6 mM HEPES pH 7.8, 80 mM KCl, 0.5 mM EDTA, 0.5 mM EGTA, 6% glycerol, 35 ng/ul poly-dIdC, 1% milk, 1 h, room temperature; Ap Aiptasia and Nv Nematostella (sea anemones) / Co Capsaspora / Aq Amphimedon (sponge) / Dm Drosophila / Hu human; RHD is the Rel homology domain; high values mean tight binding; most listed sequences are background and not binding sites; double strand, one strand shown
[1] = biological target: T1, GST-Ap-NF-kB RHD (UniProt A0A913YAJ5)
T1 sequence: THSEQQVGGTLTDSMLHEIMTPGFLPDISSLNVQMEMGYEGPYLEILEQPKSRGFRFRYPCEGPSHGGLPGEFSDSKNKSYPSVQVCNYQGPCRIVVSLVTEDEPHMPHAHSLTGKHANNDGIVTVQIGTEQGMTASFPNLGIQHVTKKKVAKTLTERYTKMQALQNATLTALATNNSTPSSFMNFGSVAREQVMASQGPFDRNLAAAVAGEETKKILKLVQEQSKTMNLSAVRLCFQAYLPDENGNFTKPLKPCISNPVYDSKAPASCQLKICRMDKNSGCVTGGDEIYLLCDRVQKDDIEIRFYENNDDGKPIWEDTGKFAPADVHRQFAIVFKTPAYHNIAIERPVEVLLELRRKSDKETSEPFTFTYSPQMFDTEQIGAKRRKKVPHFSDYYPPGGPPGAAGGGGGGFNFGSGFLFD

[2] = biological target: T2, GST-Nv-NF-kB (Cys allele) (UniProt E5G601)
T2 sequence: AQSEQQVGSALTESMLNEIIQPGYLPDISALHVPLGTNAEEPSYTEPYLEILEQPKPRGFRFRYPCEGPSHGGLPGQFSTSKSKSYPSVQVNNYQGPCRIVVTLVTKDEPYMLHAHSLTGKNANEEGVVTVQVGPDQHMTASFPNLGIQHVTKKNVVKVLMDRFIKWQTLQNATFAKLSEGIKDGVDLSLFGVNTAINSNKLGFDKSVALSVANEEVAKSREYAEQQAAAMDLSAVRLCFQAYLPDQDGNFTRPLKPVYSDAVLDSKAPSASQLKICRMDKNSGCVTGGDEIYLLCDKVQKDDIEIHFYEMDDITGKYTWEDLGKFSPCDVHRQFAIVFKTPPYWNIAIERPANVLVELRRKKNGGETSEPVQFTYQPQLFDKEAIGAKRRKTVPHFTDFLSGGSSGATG

[3] = biological target: T3, GST-Aq-NF-kB (UniProt A9Y5G7)
T3 sequence: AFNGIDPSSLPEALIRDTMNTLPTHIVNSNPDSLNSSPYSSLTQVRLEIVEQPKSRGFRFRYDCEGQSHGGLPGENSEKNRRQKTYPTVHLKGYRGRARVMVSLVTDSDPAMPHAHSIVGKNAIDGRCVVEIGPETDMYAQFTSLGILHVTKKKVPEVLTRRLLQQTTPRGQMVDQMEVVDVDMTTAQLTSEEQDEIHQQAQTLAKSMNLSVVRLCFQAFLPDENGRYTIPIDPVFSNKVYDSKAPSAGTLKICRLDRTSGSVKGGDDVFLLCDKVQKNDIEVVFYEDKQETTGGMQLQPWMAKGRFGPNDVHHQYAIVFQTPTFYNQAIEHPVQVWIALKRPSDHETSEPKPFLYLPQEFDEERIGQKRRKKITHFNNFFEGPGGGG

[4] = biological target: T4, GST-Co-NF-kB (UniProt F1ARL5)
T4 sequence: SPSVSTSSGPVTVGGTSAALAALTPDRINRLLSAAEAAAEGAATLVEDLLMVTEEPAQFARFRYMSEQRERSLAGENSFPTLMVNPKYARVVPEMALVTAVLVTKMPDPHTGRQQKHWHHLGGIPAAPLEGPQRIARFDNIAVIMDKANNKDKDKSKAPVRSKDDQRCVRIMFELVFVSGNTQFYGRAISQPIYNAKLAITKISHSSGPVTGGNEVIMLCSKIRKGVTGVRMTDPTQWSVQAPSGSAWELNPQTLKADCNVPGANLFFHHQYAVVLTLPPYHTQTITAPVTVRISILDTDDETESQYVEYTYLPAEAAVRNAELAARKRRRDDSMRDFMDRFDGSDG

In the case of “CCGATTAACATCAGGGGAGGTAATGATGTTAATCGGGTCTTGATTCGCTTGACGCTGCTG”, the binding signal [1] is reported as 2.69 z-score, the binding signal [2] is reported as 2.66 z-score and the binding signal [3] is reported as 2.71 z-score.
For “CCGATTAACATCAGGAATTTATATGATGTTAATCGGGTCTTGATTCGCTTGACGCTGCTG”, the binding signal [1] was -0.118 z-score, the binding signal [2] was -0.589 z-score and the binding signal [4] was 0.349 z-score. It also gave a binding signal [3] of 0.331 z-score.
“CCGATTAACATCAAATGTCCCCCTGATGTTAATCGGGTCTTGATTCGCTTGACGCTGCTG” showed a binding signal [1] of 6.37 z-score, a binding signal [2] of 5.25 z-score and a binding signal [3] of 5.64 z-score.
Work on “CCGATTAACATCAAGGGATTTTCTGATGTTAATCGGGTCTTGATTCGCTTGACGCTGCTG” yielded a binding signal [1] of 5.78 z-score, a binding signal [2] of 6.63 z-score and a binding signal [3] of 6.65 z-score.
“CCGATTAACATCACGGAATTCACTGATGTTAATCGGGTCTTGATTCGCTTGACGCTGCTG” was tested, and the binding signal [1] was 0.0873 z-score, the binding signal [2] was 0.36 z-score and the binding signal [4] was 0.347 z-score. It also gave a binding signal [3] of 0.929 z-score.
“CCGATTAACATCACGGGAATACCTGATGTTAATCGGGTCTTGATTCGCTTGACGCTGCTG” showed a binding signal [1] of 4.13 z-score, a binding signal [2] of 3.29 z-score and a binding signal [3] of 5.81 z-score.
“CCGATTAACATCAGGGAGATACCTGATGTTAATCGGGTCTTGATTCGCTTGACGCTGCTG” was tested, and the binding signal [1] was 4 z-score, the binding signal [2] was 4.81 z-score and the binding signal [4] was 1.64 z-score. It also gave a binding signal [3] of 7.69 z-score.
“CCGATTAACATCAGGGAACAACCTGATGTTAATCGGGTCTTGATTCGCTTGACGCTGCTG” gave a binding signal [1] of 2.52 z-score, a binding signal [2] of 2.46 z-score and a binding signal [3] of 4.61 z-score.
With “CCGATTAACATCAGTGTGCTTCTTGATGTTAATCGGGTCTTGATTCGCTTGACGCTGCTG” the binding signal [1] was -0.395 z-score, the binding signal [2] was -0.0977 z-score and the binding signal [4] was 0.211 z-score. The binding signal [3] was -0.396 z-score.
In the case of “CCGATTAACATCACAAAATTCCATGATGTTAATCGGGTCTTGATTCGCTTGACGCTGCTG”, the binding signal [1] is reported as -0.411 z-score, the binding signal [2] is reported as -0.694 z-score and the binding signal [4] is reported as -0.184 z-score. For the same sequence, the binding signal [3] was 0.843 z-score.
“CCGATTAACATCAATAAATGTACTGATGTTAATCGGGTCTTGATTCGCTTGACGCTGCTG” was tested, and the binding signal [1] was -0.504 z-score, the binding signal [2] was -0.0808 z-score and the binding signal [4] was -0.0306 z-score. It also gave a binding signal [3] of -0.233 z-score.
Work on “CCGATTAACATCAGGGGGAGTCATGATGTTAATCGGGTCTTGATTCGCTTGACGCTGCTG” yielded a binding signal [1] of 5.67 z-score, a binding signal [2] of 4.38 z-score and a binding signal [3] of 4.55 z-score.
“CCGATTAACATCACCCACGACGATGATGTTAATCGGGTCTTGATTCGCTTGACGCTGCTG” gave a binding signal [1] of 0.453 z-score, a binding signal [2] of 0.0827 z-score and a binding signal [3] of 0.459 z-score.
In the case of “CCGATTAACATCAAAAAATTTCCTGATGTTAATCGGGTCTTGATTCGCTTGACGCTGCTG”, the binding signal [1] is reported as 0.184 z-score, the binding signal [2] is reported as 0.847 z-score and the binding signal [4] is reported as 0.466 z-score. It also gave a binding signal [3] of 2.22 z-score.
“CCGATTAACATCAGAGCTCCCCCTGATGTTAATCGGGTCTTGATTCGCTTGACGCTGCTG” showed a binding signal [1] of 5.05 z-score, a binding signal [2] of 4.31 z-score and a binding signal [3] of 3.98 z-score.
Work on “CCGATTAACATCACCGAATTTGGTGATGTTAATCGGGTCTTGATTCGCTTGACGCTGCTG” yielded a binding signal [1] of -0.291 z-score, a binding signal [2] of 0.447 z-score and a binding signal [4] of -0.278 z-score. The binding signal [3] was 0.204 z-score.
“CCGATTAACATCAAGTACCCCCCTGATGTTAATCGGGTCTTGATTCGCTTGACGCTGCTG” gave a binding signal [1] of 5.57 z-score, a binding signal [2] of 3.68 z-score and a binding signal [3] of 3.99 z-score.
For “CCGATTAACATCAGGAAAAAACATGATGTTAATCGGGTCTTGATTCGCTTGACGCTGCTG”, the binding signal [1] was 0.222 z-score, the binding signal [2] was 0.49 z-score and the binding signal [4] was 0.834 z-score. The binding signal [3] was 0.699 z-score.
“CCGATTAACATCAGAATTTCCTATGATGTTAATCGGGTCTTGATTCGCTTGACGCTGCTG” showed a binding signal [1] of 0.134 z-score, a binding signal [2] of 0.118 z-score and a binding signal [4] of 0.57 z-score. The binding signal [3] was 0.807 z-score.
Work on “CCGATTAACATCAGGGACTGCCCTGATGTTAATCGGGTCTTGATTCGCTTGACGCTGCTG” yielded a binding signal [1] of 4.31 z-score, a binding signal [2] of 4.95 z-score and a binding signal [4] of 1.04 z-score. It also gave a binding signal [3] of 7.19 z-score.
Sequence “CCGATTAACATCAGAGTTTCCCCTGATGTTAATCGGGTCTTGATTCGCTTGACGCTGCTG” has a binding signal [1] of 7.08 z-score, a binding signal [2] of 8.35 z-score and a binding signal [3] of 6.33 z-score.
“CCGATTAACATCAGGAATGTACATGATGTTAATCGGGTCTTGATTCGCTTGACGCTGCTG” was tested, and the binding signal [1] was 0.0622 z-score, the binding signal [2] was -0.0553 z-score and the binding signal [4] was -0.233 z-score. It also gave a binding signal [3] of -0.0698 z-score.
“CCGATTAACATCACGTTATTTCCTGATGTTAATCGGGTCTTGATTCGCTTGACGCTGCTG” showed a binding signal [1] of 0.283 z-score, a binding signal [2] of 0.431 z-score and a binding signal [4] of 0.14 z-score. For the same sequence, the binding signal [3] was 0.714 z-score.
“CCGATTAACATCACCGGAATTCCTGATGTTAATCGGGTCTTGATTCGCTTGACGCTGCTG” showed a binding signal [1] of 1.13 z-score, a binding signal [2] of 0.705 z-score and a binding signal [3] of 2.36 z-score.
“CCGATTAACATCACGTAAAACCCTGATGTTAATCGGGTCTTGATTCGCTTGACGCTGCTG” was tested, and the binding signal [1] was 0.621 z-score, the binding signal [2] was -0.0162 z-score and the binding signal [4] was 0.599 z-score. It also gave a binding signal [3] of 2.12 z-score.
“CCGATTAACATCAGGGGGTCACCTGATGTTAATCGGGTCTTGATTCGCTTGACGCTGCTG” was tested, and the binding signal [1] was 3.61 z-score, the binding signal [2] was 2.23 z-score and the binding signal [3] was 4.39 z-score.
For “CCGATTAACATCAGGACTCCCCCTGATGTTAATCGGGTCTTGATTCGCTTGACGCTGCTG”, the binding signal [1] was 8.82 z-score, the binding signal [2] was 7.17 z-score and the binding signal [3] was 9.21 z-score.
With “CCGATTAACATCAAAATTCCAGGTGATGTTAATCGGGTCTTGATTCGCTTGACGCTGCTG” the binding signal [1] was 0.452 z-score, the binding signal [2] was -0.572 z-score and the binding signal [4] was 0.0807 z-score. For the same sequence, the binding signal [3] was 0.749 z-score.
Work on “CCGATTAACATCACGGGCAGTGGTGATGTTAATCGGGTCTTGATTCGCTTGACGCTGCTG” yielded a binding signal [1] of 0.388 z-score, a binding signal [2] of 0.122 z-score and a binding signal [4] of 1.25 z-score. For the same sequence, the binding signal [3] was 0.037 z-score.
“CCGATTAACATCAAAAAACCCCGTGATGTTAATCGGGTCTTGATTCGCTTGACGCTGCTG” gave a binding signal [1] of 7.4 z-score, a binding signal [2] of 7.45 z-score and a binding signal [3] of 7.03 z-score.
“CCGATTAACATCACCCACGAGGGTGATGTTAATCGGGTCTTGATTCGCTTGACGCTGCTG” gave a binding signal [1] of 0.185 z-score, a binding signal [2] of -0.0198 z-score and a binding signal [3] of 0.747 z-score.
Work on “CCGATTAACATCAGGGGGGCACCTGATGTTAATCGGGTCTTGATTCGCTTGACGCTGCTG” yielded a binding signal [1] of 4.84 z-score, a binding signal [2] of 3.13 z-score and a binding signal [3] of 4.5 z-score.
